{"source": "paper PMC12136788", "binders": {"B1": {"name": "131447145_131447996_338_3pUTR_ENSMUSG00000028911_ENSMUST00000053819|mouse|control|control (ssRNA)", "RNA": "GGGAGUUCUACAGUCCGACGAUCCUGCGUCCCGAGCCGUAGCUGCCAUCCCGCCGCGGGCCUCGAGCGUGCUCAACAAUGACUCGCUCGCCACACAGGUCUUUGCCGUUCAGUUCAUAAACAGCAUCGUCUGCAUCACGCAGACAACAGAGGAUUGAGCAUCA"}, "B2": {"name": "chr8:30643436:30643437:-_ENSG00000104695_ENST00000221138|hu_hu|motif|central (ssRNA)", "RNA": "GGGAGUUCUACAGUCCGACGAUCUUUUCUUAAAAAUAAAACUCCAACUCUAUUAAUCCAUGCCAGUUAAACACUAUAACGGAAAUUUCCAAAUAAGCGCAAAAGGAGAUGAAGCAGUUAGUUACCUUUUUUGCUUGAACAGUCCAACAGAGGAUUGAGCAUCA"}, "B3": {"name": "chr7:141450121:141450122:+_ENSG00000106028_ENST00000265304|hu_mus|hu_hu_hu_mus_True|18_68 (ssRNA)", "RNA": "GGGAGUUCUACAGUCCGACGAUCUCAUCCGUUCUAUGCCUUUUCUUUUGUCUGGUCACUCAGAAAUAUAAUAUUAUCAGCUAUGAUUGUUGUUGCUUGCCGCCUCACAUUGUUUUUAUCCAUGUAUUCGCCAUAGUCCACUUUCAACAGAGGAUUGAGCAUCA"}, "B4": {"name": "chr5:71490152:71490153:+_ENSG00000131711_ENST00000296755|hu_hu|motif|central (ssRNA)", "RNA": "GGGAGUUCUACAGUCCGACGAUCUACAUUGAGAAAUACAACUCCUAAGUCAGGGGAGAUGAGGUUUUUCAUCCAGUCACGGUUUGUGGUGGAGCCCUGGGACUGUUCUUCCUCGAGCUCUGCAAUUUUCCGCUGUAACAUGCUCAACAGAGGAUUGAGCAUCA"}, "B5": {"name": "chr15:60656694:60656695:-_ENSG00000182718_ENST00000451270|hu_mus|FALSE|FALSE (ssRNA)", "RNA": "GGGAGUUCUACAGUCCGACGAUCUCUCUGAUAGGCGAAGGCAAUGUCCUGCCUCUGCACAUUGCUGCGGUUUGUCAGGAUGUUGACAAUGGUGACCUCAUCCACUCCUUUGGUCUUGACUGCUGUCUCAAUGUUCAGAGCAUCCAACAGAGGAUUGAGCAUCA"}, "B6": {"name": "chr2:176793893:176793894:-_ENSG00000144320_ENST00000272748|hu_mus|FALSE|FALSE (ssRNA)", "RNA": "GGGAGUUCUACAGUCCGACGAUCCAAAGAAAAACGCUGCCAGGUCAUCUUUAUUUUCCUUAACAAAACACACACACACACACAAAAACCAUUUAUAUAUCAUCAUUAUAUUACAAAUAUAAAUAAUACCAAGAAUUCAAGUACCAACAGAGGAUUGAGCAUCA"}, "B7": {"name": "chr3:72423869:72423870:-_ENSG00000163602_ENST00000477973|hu_mus|FALSE|FALSE (ssRNA)", "RNA": "GGGAGUUCUACAGUCCGACGAUCGCAGAAUUCAUAAAUAGACAUUUCUAUUUAAAGCAGGAAAAUGAUAAAGUGGCUUCUAAUAACAGUCGUGCACAUGCCAAUAACAGGAAUAUAUUAACAUCUUUUAUUUGCUAGACAAAGCAACAGAGGAUUGAGCAUCA"}, "B8": {"name": "chr2:117085994:117085995:+_ENSMUSG00000027349_ENSMUST00000028825|mus_mus|FALSE|FALSE (ssRNA)", "RNA": "GGGAGUUCUACAGUCCGACGAUCAGACUUGGGGACCCCGAGGGCAUCACAUACAGCUUGAACUUCCUGGCAAAUUUCACUAUUUUUAUCUAACUGAGAAUUUUUAUGUUUUUUCUUCUGUAAUAUUUGUAAAGCUUGAAGUUCCAACAGAGGAUUGAGCAUCA"}, "B9": {"name": "chr11:87793471:87793472:-_ENSMUSG00000020483_ENSMUST00000020775|mus_mus|mus_mus_mus_hu_False|68_78 (ssRNA)", "RNA": "GGGAGUUCUACAGUCCGACGAUCUGGACUUGAAAAUAAAAGAAUAAGCUGGAUCCCCCCACCCCUUACAGUGUCAACCCUACACGAGAGUUUUGAAGGCGACUCAUGAAAAUCAGCAGCUCAAACGGCAAUGACCACCCCACCCAACAGAGGAUUGAGCAUCA"}, "B10": {"name": "chr6:41757443:41757444:+_ENSG00000214736_ENST00000398881|hu_mus|hu_hu_hu_mus_False|58_88 (ssRNA)", "RNA": "GGGAGUUCUACAGUCCGACGAUCGAACCGUGCAGAGGCAACAUCUCGGAAUUCUGCGGGGGAUGGGGGGGCAGUGGGAAACUAGGCAGGCAAGGAGAGGGAGUCAACUUCAGCUGCCACUCAGGUAGGAUCUUGUGGUCACAGCAACAGAGGAUUGAGCAUCA"}, "B11": {"name": "chr1:168169525:168169526:+_ENSG00000143155_ENST00000367833|hu_hu|FALSE|FALSE (ssRNA)", "RNA": "GGGAGUUCUACAGUCCGACGAUCGUGCUCACUGCUCAUGAGACACACACAUCACUACUGCUGAGGUCCCACUUUGUGAUAAUUUAGAAAUCAUCCAAAUUUAACUCCAGAAAAUAUAAAUCUGGAAUAUGAAUGUGAAGACAGCAACAGAGGAUUGAGCAUCA"}, "B12": {"name": "chr4:148551591:148551592:-_ENSMUSG00000063077_ENSMUST00000060537|mus_hu|mus_mus_mus_hu_False|48_78 (ssRNA)", "RNA": "GGGAGUUCUACAGUCCGACGAUCACCUGACAAAAUUAAAUAUCCCUGUAAAUUAGACAAGAAGCAGCAGGCAACAAAGUCUUUGCUUUGAAAUAUGUGCCAGGAAAAGUCAUCUUGUUUUUAGAUCUCAAGAGACAGUUCACACAACAGAGGAUUGAGCAUCA"}, "B13": {"name": "chr7:140402705:140402706:+_ENSG00000090266_ENST00000247866|hu_hu|FALSE|FALSE (ssRNA)", "RNA": "GGGAGUUCUACAGUCCGACGAUCUCCGCUGAAGAACUCGCUCUGGAACACCUGGGAUCUGGUCAGCUGGGGGAACUGUCUAUACCGGGGCUCAAUGUGCACACCACCACCGGCAUGACGGACUCCACCAUCUCCAGCAGUCCGCAACAGAGGAUUGAGCAUCA"}, "B14": {"name": "chr7:100804371:100804372:+_ENSG00000106367_ENST00000337619|hu_mus|FALSE|FALSE (ssRNA)", "RNA": "GGGAGUUCUACAGUCCGACGAUCCAGGCCUCUCCCCCAACCUUCCCUUCCCUCCAAGUAGCAAGGUUAGAAAAACGUUAACUCUGUGGCUCCCUUCCCUGGCCCUGGCUGGACACUGGAGCCCAGGAGGAAGUGGGGGCUGGACAACAGAGGAUUGAGCAUCA"}}, "note": "The list shows a part of the results.", "data": [{"target": "T1, UNK ZnF1-3 (human, UniProt Q9C0B0 31-174)", "T1 sequence": "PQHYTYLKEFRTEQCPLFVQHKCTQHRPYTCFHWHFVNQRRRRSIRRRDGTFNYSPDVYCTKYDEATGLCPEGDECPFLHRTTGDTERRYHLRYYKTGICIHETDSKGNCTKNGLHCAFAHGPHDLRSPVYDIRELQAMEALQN", "experiment": "nsRBNS (natural sequence RNA bind-n-seq); RBNS binding buffer (assumed for nsRBNS): 25 mM Tris pH 7.5, 150 mM KCl, 3 mM MgCl2, 0.01% Triton X-100, 500 ug/ml BSA, 20 U/ml SUPERase-In, 4 C; UNK is unkempt and MSI1 is Musashi-1; names of the RNAs are library labels; protein concentration not given here; high values mean tight binding", "units": {"binding signal": "enrichment R"}, "values": [{"binder": "B1", "binding signal": 0.763}, {"binder": "B2", "binding signal": 1.04}, {"binder": "B3", "binding signal": 0.537}, {"binder": "B4", "binding signal": 0.83}, {"binder": "B5", "binding signal": 0.495}, {"binder": "B6", "binding signal": 2.01}, {"binder": "B7", "binding signal": 0.996}, {"binder": "B8", "binding signal": 1.24}, {"binder": "B9", "binding signal": 1.77}, {"binder": "B10", "binding signal": 2.22}, {"binder": "B11", "binding signal": 1.48}, {"binder": "B12", "binding signal": 1.29}, {"binder": "B13", "binding signal": 0.798}, {"binder": "B14", "binding signal": 0.519}]}]}
